Assay results published in article PMC6919601, “Identification of Plasmodium dipeptidyl aminopeptidase allosteric inhibitors by high throughput screening” (PLoS ONE, 2019).
Where “and” joins values, the source holds several entries; their conditions need not be identical. Identical values can stand only once. In all, about 110,000 compounds went through this assay and about 230 (0.21%) showed an effect of 50% or more. The list shows a part of the results.

Molecular target: DPAP1 (Plasmodium falciparum, UniProt Q8IIJ9)
Assay: primary screen, percent inhibition; read by cleavage of a fluorogenic dipeptide substrate; higher = more effect of the substance
Set-up: species or system P. falciparum D10 trophozoite lysates; single well
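Further: 30 min substrate incubation versus DMSO and 10 µM JCP410 controls.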

Sequence of DPAP1 (Q8IIJ9 whole entry, looked up): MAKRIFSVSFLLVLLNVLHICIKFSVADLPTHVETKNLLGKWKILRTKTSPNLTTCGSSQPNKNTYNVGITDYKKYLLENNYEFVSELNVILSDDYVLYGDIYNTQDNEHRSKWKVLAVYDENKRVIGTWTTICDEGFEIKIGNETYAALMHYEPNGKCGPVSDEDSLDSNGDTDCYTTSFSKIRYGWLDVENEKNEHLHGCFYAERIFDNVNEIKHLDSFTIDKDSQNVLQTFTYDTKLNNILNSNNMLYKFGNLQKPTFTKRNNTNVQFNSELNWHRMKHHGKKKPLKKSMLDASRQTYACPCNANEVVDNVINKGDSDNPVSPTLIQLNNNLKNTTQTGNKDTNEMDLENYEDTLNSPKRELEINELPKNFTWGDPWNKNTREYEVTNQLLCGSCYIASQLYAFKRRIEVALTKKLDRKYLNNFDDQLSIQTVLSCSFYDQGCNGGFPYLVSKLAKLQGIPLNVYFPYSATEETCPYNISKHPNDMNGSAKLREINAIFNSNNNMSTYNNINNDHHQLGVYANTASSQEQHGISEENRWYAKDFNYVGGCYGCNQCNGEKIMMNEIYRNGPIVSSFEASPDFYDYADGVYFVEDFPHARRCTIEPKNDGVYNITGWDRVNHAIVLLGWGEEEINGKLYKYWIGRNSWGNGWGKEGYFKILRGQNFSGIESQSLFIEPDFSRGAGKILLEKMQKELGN

Compound | % Inhibition @ 10 uM
CC1CC(C)N(C(=O)c2cc(-c3ccc(F)cc3)no2)C(C)C1 (stereo not shown) | -0.901%
CCOCCCNC(=O)C(NC(=O)Cc1cccs1)c1ccccc1 (stereo not shown) | -2.9%
CC(=O)Nc1ccc(Nc2nc3ccccc3nc2NS(=O)(=O)c2ccc(C)cc2)cc1 | -7.35%
CCOC(=O)c1[nH]c(COC)c(C(C)=O)c1C | 2.7%
COc1ccccc1Cn1ccn(Cc2cccc(F)c2)c(=O)c1=O | 3.71%
Cc1ccc(-c2csc3ncnc(N4CCCC4)c23)cc1 | -4.39%
O=C(Nc1ccccc1)c1cc2ccccc2oc1=O | 0.132%
O=C(NC12CC3CC(CC(C3)C1)C2)N1CCC(CN2CCCCC2)CC1 | 6.78%
CCOC(=O)c1cnc2c(-c3ccccc3OC)c(C)nn2c1C | -2.5%
COc1cccc(/C=C2/NC(=O)N(c3ccccc3)C2=O)c1OCC(=O)Nc1ccc(F)cc1 | 3.48%
COc1ccccc1CN1CCN(Cc2ccc(C)cc2)CC1 | -2.74%
CCO/C(O)=C1\C(C)=NC(=S)NC1c1cccc2ccccc12 (stereo not shown) | -1.66%
O=C(Nc1ccc(Cl)cc1)c1cc(Cl)ccc1NS(=O)(=O)c1ccc(Cl)c([N+](=O)[O-])c1 | 7.87%
O=C(CN1CCCCC1)N1CCN(C(=O)c2ccccc2)C1 | -0.48%
Cc1ccc(-c2nnc(N3CCOCC3)c3ccccc23)cc1S(=O)(=O)N1CCCCC1 | -3.41%
CCO/C(O)=C1/C(C)=NC(=S)NC1c1ccc(C)cc1 (stereo not shown) | -1.99%
COc1ccc(-c2nc(Nc3c(C)n[nH]c3C)sc2C)cc1 | 0.627%
Cc1cc(C)cc(NS(=O)(=O)c2ccc(Cl)cc2)c1 | 3.85%
N#Cc1c(Cl)nc(N2CCOCC2)c(Cl)c1Cl | 0.561%
COc1ccc2nc(N/C=C3/C(=O)NC(=O)N(c4cccc(Cl)c4)C3=O)sc2c1 | 0.673%
Cc1cc(C)c(C)c(/C=C(/C#N)C(N)=S)c1C | -4.35%
CCc1ccc(/N=C(\C)C2=C(O)c3ccccc3C2=O)cc1 | -0.759%
O=C(c1ccncc1)N1CCN(Cc2ccccc2C(F)(F)F)CC1 | 3.95%
Cc1cccc2c1-c1sc(C(=O)NCC3CCCO3)cc1CO2 (stereo not shown) | 3.45%
O=C(c1ccc(Cl)cc1Cl)N1CCN(c2ccccc2)CC1 | -2.02%
CCC(=O)Nc1ccc2nc(SC(CC)C(=O)Nc3ccc(C(C)=O)cc3)sc2c1 (stereo not shown) | 1.03%
COC(=O)c1cc(S(=O)(=O)NCC2CCN(CCc3ccc(OC)cc3)CC2)cn1C | -0.127%
COc1ccc2nc(C(=O)O)sc2c1 | -7.15% and 1.63%
